# Test results reported in the supplement of paper PMC4604168 (melanoma cell lines).
# The list shows a part of the results. Repeats are few or missing, and single values can be far off.
# System: 501Mel
# Experiment: cell count relative to DMSO control; melanoma cells; higher = more viable cells
# Details: library dose: standard library concentration; 72 h
# 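Further: cells treated in 1,536-well plates, then fixed and DAPI-stained, with nuclei counted from automated high-throughput microscope images.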
row,Compound,cell count [%]
1,"Cc1nc(Nc2ncc(C(=O)Nc3c(C)cccc3Cl)s2)cc(N2CCN(CCO)CC2)n1 [dasatanib] + Cc1cc(SCc2sc(-c3ccc(C(F)(F)F)c(F)c3)nc2C)ccc1OCC(=O)O [GW0742] (first compound 0.02 µM, partner dose 10 µM)",80.7
2,"C#Cc1cccc(Nc2ncnc3cc(OCCOC)c(OCCOC)cc23)c1 [erlotinib] + O=C(Oc1ccc([N+](=O)[O-])cc1)N1CCC(C(O)(c2ccc3c(c2)OCO3)c2ccc3c(c2)OCO3)CC1 [JZL184] (first compound 4 µM, partner dose 5 µM)",53
3,"O=C(O)c1ccc2c(c1)nc(Nc1cccc(Cl)c1)c1ccncc12 + Cc1cc(SCc2sc(-c3ccc(C(F)(F)F)c(F)c3)nc2C)ccc1OCC(=O)O [GW0742] (first compound 2 µM, partner dose 10 µM)",96.3
4,"COc1cc2ncnc(Nc3ccc(Oc4ccccc4)cc3)c2cc1OC + C/C(O)=C(\C#N)C(=O)Nc1cc(Br)ccc1Br [LFM-A13] (first compound 10 µM, partner dose 10 µM)",103
5,"CN1CCN(c2ccc3nc(-c4c(N)c5c(F)cccc5[nH]c4=O)[nH]c3c2)CC1 [Dovitinib] + C/C(O)=C(\C#N)C(=O)Nc1cc(Br)ccc1Br [LFM-A13] (first compound 0.5 µM, partner dose 10 µM)",62
6,"C=CCn1c(=O)c2cnc(Nc3ccc(N4CCN(C)CC4)cc3)nc2n1-c1cccc(C(C)(C)O)n1 + Cc1cc(SCc2sc(-c3ccc(C(F)(F)F)c(F)c3)nc2C)ccc1OCC(=O)O [GW0742] (first compound 0.1 µM, partner dose 10 µM)",73.4
7,"COc1ccc(COc2ccc(Cc3cnc(N)nc3N)cc2OC)cc1 + C/C(O)=C(\C#N)C(=O)Nc1cc(Br)ccc1Br [LFM-A13] (first compound 5 µM, partner dose 10 µM)",122
8,"O=C(O)C(=O)Nc1sc2c(c1C(=O)O)CCNC2 + C/C(O)=C(\C#N)C(=O)Nc1cc(Br)ccc1Br [LFM-A13] (first compound 8.33333 µM, partner dose 10 µM)",118
9,"COc1cc(N2CCC(N3CCN(C)CC3)CC2)ccc1Nc1ncc(Cl)c(Nc2ccccc2S(=O)(=O)C(C)C)n1 + O=C(Oc1ccc([N+](=O)[O-])cc1)N1CCC(C(O)(c2ccc3c(c2)OCO3)c2ccc3c(c2)OCO3)CC1 [JZL184] (first compound 0.4 µM, partner dose 5 µM)",69.6
10,"O=C(CCCCCCC(=O)Nc1ccccc1)NO [vorinostat] + Cc1cc(SCc2sc(-c3ccc(C(F)(F)F)c(F)c3)nc2C)ccc1OCC(=O)O [GW0742] (first compound 0.4 µM, partner dose 10 µM)",70.1
11,"C[C@@H]1CCN(C(=O)CC#N)C[C@@H]1N(C)c1ncnc2[nH]ccc12 + C/C(O)=C(\C#N)C(=O)Nc1cc(Br)ccc1Br [LFM-A13] (first compound 5 µM, partner dose 10 µM)",92.8
12,"Cc1cc(Nc2cc(N3CCN(C)CC3)nc(Sc3ccc(NC(=O)C4CC4)cc3)n2)n[nH]1 [Tozasertib] + C/C(O)=C(\C#N)C(=O)Nc1cc(Br)ccc1Br [LFM-A13] (first compound 0.03 µM, partner dose 10 µM)",108
13,"Oc1cc(-c2nc(-c3ccccc3)[nH]c2-c2ccncc2)ccc1Cl + C/C(O)=C(\C#N)C(=O)Nc1cc(Br)ccc1Br [LFM-A13] (first compound 1 µM, partner dose 10 µM)",81.6
14,"Nc1ccn([C@@H]2O[C@H](CO)[C@@H](O)C2(F)F)c(=O)n1 [gemcitabine] + O=C(Oc1ccc([N+](=O)[O-])cc1)N1CCC(C(O)(c2ccc3c(c2)OCO3)c2ccc3c(c2)OCO3)CC1 [JZL184] (first compound 0.002 µM, partner dose 5 µM)",88.6
15,"Clc1ccc(Nc2nnc(Cc3ccncc3)c3ccccc23)cc1 [vatalanib] + C/C(O)=C(\C#N)C(=O)Nc1cc(Br)ccc1Br [LFM-A13] (first compound 10 µM, partner dose 10 µM)",69.5
16,"c1cc(-c2cnn3cc(-c4ccc(OCCN5CCCCC5)cc4)cnc23)ccn1 [Dorsomorphin] + O=C(Oc1ccc([N+](=O)[O-])cc1)N1CCC(C(O)(c2ccc3c(c2)OCO3)c2ccc3c(c2)OCO3)CC1 [JZL184] (first compound 2 µM, partner dose 5 µM)",43.9
